Assay results as given in the supplement of paper PMC3334620.
In all, about 33,000 sequences were measured (“E-score (-0.5 to 0.5)”: median about -0.053, highest 2% from about 0.37 on). Some of the results follow.

What follows are sequences tested against Hap1 (UniProt P0CE41) (assay: PBM E-score (8-mer binding enrichment) (E-score (-0.5 to 0.5)); higher = stronger / more preferred TF binding; most listed sequences are background and not binding sites). Details: protein concentration: 200 nM; construct: GST-DNA-binding domain.
UniProt P0CE41, sequence (P0CE41 whole entry, the tested form may be a part): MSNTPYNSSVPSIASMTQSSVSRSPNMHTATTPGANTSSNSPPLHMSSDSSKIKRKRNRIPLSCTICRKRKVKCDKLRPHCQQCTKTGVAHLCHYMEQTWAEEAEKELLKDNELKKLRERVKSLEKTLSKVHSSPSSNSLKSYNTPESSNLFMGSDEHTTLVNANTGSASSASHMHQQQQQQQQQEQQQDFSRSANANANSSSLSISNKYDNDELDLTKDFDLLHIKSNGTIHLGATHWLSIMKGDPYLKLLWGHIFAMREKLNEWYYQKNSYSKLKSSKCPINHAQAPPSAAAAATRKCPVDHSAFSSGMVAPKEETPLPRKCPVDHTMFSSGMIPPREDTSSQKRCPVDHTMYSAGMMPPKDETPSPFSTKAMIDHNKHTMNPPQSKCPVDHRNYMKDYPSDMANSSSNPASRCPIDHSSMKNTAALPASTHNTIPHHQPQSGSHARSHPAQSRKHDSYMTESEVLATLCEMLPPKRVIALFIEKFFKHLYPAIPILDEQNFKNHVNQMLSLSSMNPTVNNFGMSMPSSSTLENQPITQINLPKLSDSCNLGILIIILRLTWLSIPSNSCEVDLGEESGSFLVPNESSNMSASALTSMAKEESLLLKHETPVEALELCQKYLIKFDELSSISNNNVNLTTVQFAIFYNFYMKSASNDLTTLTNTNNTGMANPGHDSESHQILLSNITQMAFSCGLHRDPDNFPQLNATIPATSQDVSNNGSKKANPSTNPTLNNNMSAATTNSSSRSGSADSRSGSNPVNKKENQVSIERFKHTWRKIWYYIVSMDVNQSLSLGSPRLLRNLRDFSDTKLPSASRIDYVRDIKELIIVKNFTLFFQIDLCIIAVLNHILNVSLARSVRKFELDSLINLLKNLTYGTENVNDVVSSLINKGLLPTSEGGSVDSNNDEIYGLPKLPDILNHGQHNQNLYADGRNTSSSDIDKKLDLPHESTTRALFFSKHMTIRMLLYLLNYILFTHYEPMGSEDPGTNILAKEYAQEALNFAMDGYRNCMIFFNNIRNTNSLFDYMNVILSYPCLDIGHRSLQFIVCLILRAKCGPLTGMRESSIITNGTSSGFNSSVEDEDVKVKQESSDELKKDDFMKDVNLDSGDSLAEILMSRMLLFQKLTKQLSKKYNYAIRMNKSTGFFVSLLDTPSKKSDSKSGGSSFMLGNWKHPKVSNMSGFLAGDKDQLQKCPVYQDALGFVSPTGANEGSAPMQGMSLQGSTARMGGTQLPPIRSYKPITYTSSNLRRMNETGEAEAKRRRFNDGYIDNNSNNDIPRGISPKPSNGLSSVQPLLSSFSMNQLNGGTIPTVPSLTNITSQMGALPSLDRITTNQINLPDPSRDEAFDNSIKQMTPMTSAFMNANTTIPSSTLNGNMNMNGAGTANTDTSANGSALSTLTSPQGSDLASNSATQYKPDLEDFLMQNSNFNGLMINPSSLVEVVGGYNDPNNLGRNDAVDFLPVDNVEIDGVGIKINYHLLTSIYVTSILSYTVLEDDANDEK
In short: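 GST-tagged yeast TFs (full-length or DNA-binding domain) were made by PURExpress in vitro transcription/translation and applied at about 100-200 nM to universal all-10-mer Agilent arrays. The arrays were made double-stranded by primer extension, on fresh or once-stripped slides. Bound protein was detected with fluorescent anti-GST, and scans were normalised with masliner. Each ungapped eight-base word, pooled with its reverse complement, received an E-score (modified Wilcoxon-Mann-Whitney statistic) from the Universal PBM Analysis Suite.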

Sequence	PBM E-score
ATCGAATA	-0.193
AGCTGCCT	-0.11
CTCTAGAA	-0.259
GGGAGAGA	-0.156
AGCTTTAG	-0.237
CCTTGGGC	-0.0386
ATAAACAT	0.0197
GAATTGGC	-0.0612
GTATGCAA	-0.15
ACCGTGTA	-0.124
CAATCCAC	-0.00364
TAAGCTGA	0.0387
AACCGGTA	0.331
TAACCTAA	-0.0745
CTGAAGAA	-0.27
CTCACCAC	-0.158
CCGTCTAA	0.16
CTGTAAGA	-0.217
ATGGCCAC	-0.195
TAAGAGGA	-0.0474
ATGAAAAT	-0.146
CAGTTCAG	-0.162
AAAATTAC	-0.122
AAGGCGAG	-0.225
GTTGAAAA	-0.0338

Sequence	PBM E-score
AGGCCATG	-0.153
GCAAAAAC	-0.00489
CTCAAGAC	-0.0626
ACCTATAG	-0.287
TCAGTAAA	-0.128
CCTCATAC	-0.102
GTTAACTA	0.194
CGCCGCGA	0.213
CGTCCCAA	-0.136
CTCACCCC	0.075
CATCTCCC	0.104
CGACTGCA	-0.0641
AACCGACT	0.125
AACAAACC	0.178
AGTGACTA	-0.139
ACAGATGC	-0.196
AGCAGATC	-0.272
ATATTTGC	0.0549
ATCGCAGG	-0.203
GAGCGTGC	0.032
GCAGAGGC	-0.106
AAATAACG	0.164
ATCGCCTG	-0.0484
CGGGCGAG	0.319
AGACGCAA	-0.0396

Sequence	PBM E-score
GGGCAGAA	0.0923
CACTTTAG	-0.0543
ATTGAGAC	-0.1
GGATGTAA	0.256
GGATTCTA	0.0827
CTCGTAGC	-0.117
ATCTGTTC	-0.00788
GGCTCAAC	-0.099
CCGAAATC	0.401
CCCTTACG	-0.0397
CGTCTTAC	-0.199
TGTGCAAA	-0.321
CATATCTA	0.0111
AGCGGGTA	0.0635
AACACGCA	0.00552
CGTCTCCC	0.0505
AGACTTGA	-0.242
GCATGCGC	0.0178
AGTACAAT	-0.0788
TGTTGGAA	-0.0847
CATGCCCC	0.0313
CTGTCCAC	-0.0628
AAATATAA	0.0848
CCACGAGG	0.0462
ACTACAGC	0.0243

Sequence	PBM E-score
CCGGGCGA	0.376
AAACCGAG	0.267
ATGACACG	0.0111
AGCGTCGC	-0.0992
AGGACGGA	0.199
GCATAATA	-0.0527
AAGCAGGG	-0.0962
ACAATTTG	-0.197
AAACTGTA	-0.0605
GGTGGGGA	-0.0231
AGTGTAAT	-0.0838
CACTAAAC	-0.0365
AAACGGCG	0.162
AGCGAGGA	-0.0133
CATGAAAG	-0.0192
CATACGGA	0.289
CCGGGCGC	0.331
AGGGCAAA	-0.0601
GCTGCAAC	0.0221
GCGCAAAC	0.0375
ATGTGTTC	0.0657
GCCAGCAC	-0.187
TCCGGAAA	0.445
CGCACCCG	0.224
TCGACGAA	-0.157

Sequence	PBM E-score
GTTAGGAA	-0.0616
ATGCCCGC	0.271
CACATGAG	-0.348
CAACTACC	-0.0421
CGAGCGCA	0.126
TAGACGCA	-0.174
ACTTAAAC	-0.0625
GCTTGTTA	0.0177
GCCCTTTA	-0.0786
AATAAGCT	-0.00764
ACCACCAT	0.0801
GATTTAAA	-0.0644
CGTCTTGC	0.00364
AGGGCTTC	-0.117
ATCAAGAT	-0.0874
GGCCGATA	0.457
ACCTATCG	0.278
ATGGCTTA	-0.0789
TTCACGAA	-0.109
ACAAGGGG	-0.094
TACTTTAA	-0.111
CAGGCCCC	-0.129
CATTCCGG	0.322
CCAATATA	-0.15
GCCATTAC	0.0703

Sequence	PBM E-score
GCTATAGC	0.0502
AAGCTAGG	-0.0218
CAGCAATA	-0.104
CCCCAGTC	-0.0527
CCCATGCA	-0.152
TCTATAAA	-0.103
CATCTTAC	-0.254
ACAACTAT	-0.0364
AGCATAGG	-0.188
ATAGTCGA	-0.0533
CGGATATC	0.39
ACACTAGA	-0.095
AGGGGATG	-0.00603
AGATGCCG	0.175
AAGTAGGC	0.00443
ACGATGGA	-0.0959
CGGAACCA	0.311
CGGCCCAA	0.251
ATTGATGA	-0.0401
GACTAGCC	-0.0957
ACCGCGAG	0.0447
TTAGTAAA	-0.0612
ACATTTTG	-0.152
CCGAATAA	0.29
CCACAAAG	-0.00127

Sequence	PBM E-score
ACCCACAT	-0.0251
GTACGCTA	-0.153
ACAGAAGA	-0.0507
ACGGTGTG	-0.00778
CAACAACC	0.00665
AAGATCAT	-0.154
CTAAGTTA	-0.182
CCTCTGAC	-0.106
CGAGCCAC	-0.109
TCCTCAGA	-0.12
CGCGCAAG	0.0599
AGCCGAGA	0.267
GGCACCCC	-0.0546
CTGTGACA	-0.312
CCGCTGCA	-0.0239
ATCAGGAA	-0.222
ATAGACGC	0.106
CTGCGAAG	-0.262
AACAGAGC	-0.144
AACATCTG	-0.281
AGAATCCG	0.269
AATCTTCT	-0.0433
